109 sequences from PMC6212790 can be followed below.

This is one part of the list. At the low end of the ranking the order means little.

For this experiment, the target named is T1, GST-Rok-C97-191 (UniProt O34857).
T1 sequence: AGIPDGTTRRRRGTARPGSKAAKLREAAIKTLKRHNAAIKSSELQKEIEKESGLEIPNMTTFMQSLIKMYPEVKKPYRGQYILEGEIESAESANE
Briefly: protein binding microarray.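 Also: rank score from −0.5 (least bound) to 0.5 (best bound).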 The note with it: Rok is a gene silencer of Bacillus subtilis; high values mean tight binding; most listed sequences are background and not binding sites; double strand, one strand shown.
The sequence AGATAGGA registered a binding signal of 0.133 E-score.
The sequence CGGAACGA had a binding signal of 0.123 E-score.
Turning to CTAGTGTA, the binding signal was 0.178 E-score.
Sequence GTAGTGGA displayed a binding signal of 0.179 E-score.
As to CAGTCTGC, the binding signal is -0.201 E-score.
For ATAGGAGA the value was 0.127 E-score; for GCCCTCCA, -0.429 E-score.
Next, CTACTCAC: 0.103 E-score; GAGTGGAC: -0.0716 E-score; GGTTGGTA: 0.0918 E-score.
For AGGGGTGG the value was -0.192 E-score; for TAGACGCA, -0.0795 E-score; for ACGCTCCC, -0.211 E-score.
In the case of ATCGTGTC, the binding signal turned out to be 0.0198 E-score.
For TAGGAGGA, the binding signal was -0.0185 E-score.
For AACCACTC the value was -0.0933 E-score; for AAAACATG, -0.0172 E-score.
Sequence GCGTCGGA had a binding signal of -0.241 E-score.
Next, GACCTGAA: 0.026 E-score; ATAATCGC: 0.124 E-score.
AAATCCTC: the binding signal was -0.0816 E-score.
For AGATAAAT the value was 0.248 E-score; for TACCTTCA, -0.0353 E-score.
AACGTCAC returned a binding signal of -0.0218 E-score.
CGACTTTA: the binding signal is -0.0431 E-score.
For ACTGTATC the value was 0.121 E-score; for AAGCTCTC, -0.227 E-score.
CGCGCAGC yielded a binding signal of -0.442 E-score.
Next, ACTACTAA: 0.379 E-score; CTTGATTC: -0.193 E-score.
Next, CATTCGGC: -0.163 E-score; GCAGGGAA: -0.262 E-score.
For CTATTGCA the value was 0.0247 E-score.
CATCTCCA returned a binding signal of 0.0694 E-score.
Next, ACTCTGAT: -0.119 E-score.
Next, AACACTCC: 0.00647 E-score.
With CGCTAATC, the binding signal was 0.188 E-score.
As to CGCTTCAC, the binding signal is -0.177 E-score.
As to GCTATACA, the binding signal was determined as 0.176 E-score.
Next, CTTAGCGC: 0.0409 E-score; ACTACAGC: 0.247 E-score.
Next, GTCTCCTA: 0.0202 E-score; CTATGAAC: -0.0693 E-score; CGGACTTA: -0.0748 E-score.
For GGCATGTA the value was 0.125 E-score; for ACGGAATG, 0.219 E-score.
As for AAGTCTAC, the binding signal was -0.0949 E-score.
Turning to ACTGCTCA, the binding signal was 0.00989 E-score.
For CTACGCAG the value was -0.241 E-score; for CTGACGTA, 0.044 E-score.
For CGTTCCGC the value was -0.323 E-score.
Next, ATGCGATA: 0.0838 E-score; CATCCCGA: 0.0422 E-score; CTTGTAGC: 0.0103 E-score.
Take CCTCCGAG: the binding signal was -0.182 E-score.
In turn, AAAGGGGA yielded a binding signal of -0.23 E-score.
For CTTTTCCA the value was 0.0149 E-score; for AGGTTAAG, -0.0584 E-score; for CGGGTGGC, -0.204 E-score.
GCATACGC registered a binding signal of -0.212 E-score.
For CAGGTAAA the value was 0.0575 E-score.
For AATCGAGA the value was 0.0147 E-score; for GTGTCAAA, -0.0452 E-score; for ACTCAAGG, 0.117 E-score.
Next, CACGCCTC: -0.231 E-score.
With CCGGGGAG, the binding signal is -0.254 E-score.
For AACTAGTT the value was 0.439 E-score; for GACATCGA, -0.111 E-score; for ATGGATTA, 0.0887 E-score.
For ATATAGGG the value was -0.00212 E-score; for ATCTAAGC, 0.12 E-score.
Take GTTTCGCA: the binding signal was -0.113 E-score.
For ACTGAATG the value was -0.0429 E-score; for GGTCTAAA, -0.00415 E-score.
With GGCTTCCA, the binding signal was -0.0948 E-score.
Next, GGATACTA: 0.167 E-score; AACTAGAG: 0.0733 E-score.
Next, CGCGCATA: 0.0658 E-score; ACTCTGGC: -0.2 E-score.
In the case of CCGCTCGC, the binding signal is -0.252 E-score.
Sequence CATCTGCA yielded a binding signal of -0.114 E-score.
As for GAAGGACC, the binding signal is -0.092 E-score.
CAGTGGGA gave a binding signal of -0.131 E-score.
Next, CTATGCAC: 0.207 E-score; CCAGAAAC: -0.169 E-score; AAACCAGG: -0.222 E-score.
CTAGTTCC registered a binding signal of 0.262 E-score.
Next, AAAGAATG: 0.0996 E-score; AAGAGTTA: 0.118 E-score; CGGCAGAG: -0.361 E-score.
ATTTCTGC registered a binding signal of 0.157 E-score.
Take GGATCCAC: the binding signal was -0.0964 E-score.
Next, GCCACTGA: -0.0904 E-score; ACAAATAC: 0.266 E-score.
Sequence GATGCGGA yielded a binding signal of -0.176 E-score.
Next, AATTCACA: 0.147 E-score; ACACCCGG: -0.122 E-score.
Turning to ATGTTGTA, the binding signal was determined as 0.13 E-score.
As to AGAATTCG, the binding signal was found to be 0.256 E-score.
For GCTCATTA the value was -0.0287 E-score.
Next, CAAACAGA: 0.0236 E-score; TCATGGGA: -0.0486 E-score.
For the sequence AACGGGCC, the binding signal is -0.376 E-score.
Turning to CCTTCCCC, the binding signal is -0.184 E-score.
Next, GGTACCGA: 0.00663 E-score.
ATTGAGGA yielded a binding signal of 0.0306 E-score.
Next, CATCCTCG: -0.158 E-score.
For ACTCTACC, the binding signal is -0.0607 E-score.
On to ATACTCTG, for which the binding signal was -0.0409 E-score.
